This note sets out measurements from the supplement of paper PMC10126150.

Values marked as one replicate rest on one cluster of the flow cell; about a third of the high ones do not repeat.
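Also: ATP exposure 15 min at 22 °C before imaging.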

The test system of the series is ATP. Briefly: switch fluorescence ratio, 500 uM ATP over buffer (Cy3 cluster intensity, sum of 5 cycles each) (fold (ratio)); higher = stronger signal-on switching upon ATP binding; sequences stand for … in TCGTCGGCAGCGTCAGATGTGTATAAGAGACAGTTTTTTTTTTTTTTTTTTTTTTTTT…TC. Conditions: aptamer strand: ATP DNA aptamer (quencher-CACCTGGGGGAGTATTGCGGAGGAAGG + anchor), 100 nM annealed; ATP concentration: 500 uM; one replicate. In outline: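 For every switch-domain sequence, the fluorescence ratio is the mean of per-cluster values, each being summed target-cycle Cy3 intensity over summed buffer-cycle Cy3 intensity. Clusters outside 100-1000 RFU were excluded. On a modified Illumina MiSeq flow-cell, the Cy3-labelled switching-strand clusters were annealed to 100 nM quencher-labelled ATP aptamer, imaged in selection buffer and then after 15 min with 500 uM ATP at 22 °C. Five such cycles were run, with NaOH stripping and re-annealing between them.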
Take ATGGTAAATA: the switch fluorescence ratio is 0.997.
As for TAGGCTAGCT, the figure is 0.926; as for TTTCTCGTAT, 0.987.
As for CAGTTCAGCG, the figure is 1; as for ACACGCGAGG, 1.02.
As for ATTTAAAGTG, the figure is 0.958; as for GGGATATCTC, 0.997; as for CTGTAAATAG, 1.18.
TATAGGCGTA: the switch fluorescence ratio came out at 1.04.
Consider TGACGCAGCA, for which the switch fluorescence ratio is 4.25.
As for TTATGGGTCC, the figure is 1; as for TAGGGTGAGA, 1.02; as for GATTGGGAA, 1.
AAAACAGAGT: the switch fluorescence ratio was 0.996.
To GCCGTAGAGT belongs 1; to ATCATCGTTA, 0.971.
As for GCTGGGATAA, the figure is 0.965.
Consider CTACCGGTT, for which the switch fluorescence ratio worked out at 0.958.
Turning to ATTACCGAGC, the switch fluorescence ratio was 1.08.
Take TAACCCGCTT: the switch fluorescence ratio came out at 0.999.
To GTAGTTCAGG belongs 1.02.
As for TTGTACGTGA, the figure is 1.49; as for CACGCGTGGG, 0.964.
To GCCTGATGAT belongs 0.955; to TTTTGACTG, 0.966.
Regarding AGTAAGACTA, the switch fluorescence ratio turned out to be 1.02.
To GATTTTGGTA belongs 0.967; to TACGCATTAT, 2.38.
To ATGCCCTGCC belongs 1.06; to CGAACACCTG, 1.04; to TTGCGGTACT, 2.86.
For CAGAGTCGTT, the switch fluorescence ratio was 0.989.
As to GCTGTAGG, the switch fluorescence ratio came to 1.03.
On to GATGCGGCAG, for which the switch fluorescence ratio turned out to be 0.978.
As for GCCACGAAGG, the figure is 0.996; as for GCCTAGCATT, 0.998; as for AGTTGTTCTC, 0.989.
As for GCGTTTAGCG, the switch fluorescence ratio was 1.02.
Take TCTCGGGGGC: the switch fluorescence ratio came out at 1.02.
Take AACGGATTGG: the switch fluorescence ratio came out at 0.955.
With GAACGCATCT, the switch fluorescence ratio was determined as 2.16.
Regarding GTGTGTAACA, the switch fluorescence ratio came out at 0.966.
For CTCTCTTT, the switch fluorescence ratio was 1.01.
As for TTTACCGTTT, the figure is 1.09; as for GCTACTCACG, 1.56.
Consider TGCTGTACTG, for which the switch fluorescence ratio turned out to be 1.09.
ATATCCTCTC: the switch fluorescence ratio worked out at 1.04.
To GACCGGTTTT belongs 0.975.
Consider TTTACCGGGC, for which the switch fluorescence ratio amounted to 1.07.
As for AATCTCTTAA, the figure is 0.983; as for GTGGCGAAAA, 0.963.
AGCAATACTT: the switch fluorescence ratio worked out at 1.39.
As for AGCGGGGACT, the figure is 1.04.
To GGATAGATTT belongs 0.976.
As for TCCTGCGTTT, the figure is 1.04; as for ACTCATGGGT, 1.02; as for CGGGTATGTC, 0.95.
With GGTTCTGGAC, the switch fluorescence ratio was determined as 0.947.
As for ATGTCTAAGT, the figure is 1.03; as for GTCAGGGAGC, 1.
As for TCATCCGTAG, the switch fluorescence ratio is 2.08.
As for AAAGCTCAAC, the figure is 1.07; as for GCTTAGCCTC, 1; as for ATTAACAAGT, 1.05.
As for CAATACGTGG, the figure is 1.07; as for AATTTGGACG, 0.929.
As for AACGTGAGGT, the figure is 1.03; as for CGGAGGGACA, 1.01.
For the sequence GAGATAGAGT, the switch fluorescence ratio stood at 1.03.
As for ATCCAAATTT, the figure is 0.982; as for GGCCGGATTT, 1.02; as for AAACGGCTTA, 1.04.
As for GAATAATTGT, the figure is 0.928.
Consider CGACCGCCCC, for which the switch fluorescence ratio was 2.78.
To CATCGCTTCA belongs 1.05; to CGCTGTTCCA, 0.99; to GAGCTACTTT, 0.975.
For CCAGGCAAAG, the switch fluorescence ratio stood at 1.13.
To AGACCTATGC belongs 1.04; to ACTCAACCTG, 1.45; to AAGTGTACCT, 1.11.
As for GTTGCGAGTA, the switch fluorescence ratio worked out at 1.02.
To GATGTCCAAC belongs 1.
As for CTTGGGGCAA, the figure is 1.46; as for GGGGCAATTC, 3.84.
For ATCCTCTTTA, the switch fluorescence ratio came to 0.999.
In the case of TTTATGCAAC, the switch fluorescence ratio worked out at 1.03.
To TGGTTAAAGA belongs 1.01.
As for TAGACAGGAG, the figure is 1.01.
Consider CCTACCTTCA, for which the switch fluorescence ratio was determined as 2.14.
To AGGGAATTAA belongs 0.988; to ACCGGTCCGA, 1.14.
To CGTACCGGGC belongs 1.04; to GTATACAATC, 1.03.
Take GGTATCCGTT: the switch fluorescence ratio was determined as 1.03.
With GCACAAAGC, the switch fluorescence ratio turned out to be 1.09.
To GCGCAAGGAG belongs 1.06; to ACAGAGCGGA, 1.02; to AAATTTGTAA, 1.02.
To CAGTTCCATT belongs 1.02.
As for AGCCGGGAAG, the figure is 1.01.
Regarding GTGGCATCTT, the switch fluorescence ratio came to 1.
To AGCAAAAGTG belongs 1.04.
To TCCTACGATT belongs 1.8; to TAGGATTATT, 1.13.
As for ATTGTCCTTG, the figure is 1.02; as for AACCTTCCGG, 2.35.
Consider TGGGCCAGTC, for which the switch fluorescence ratio is 0.975.
To AACCTATGTG belongs 1.03; to GAGTATGTAT, 0.937; to TTGCATTGAT, 1.
As for GCGATTGTCT, the figure is 1.03.
To AGTGTACCCC belongs 1.22; to TACTCTAATG, 1.08.
Take TATAATGACG: the switch fluorescence ratio was 0.888.
To AGCATCGTTT belongs 0.968; to TAGCGGCTTG, 0.979; to GGGGTCTAGA, 0.993.
As for GCTATCGCGT, the figure is 0.999.
To TTGGTGCCGA belongs 0.975.
